Measured values reported in PubChem BioAssay AID1460 (National Center for Advancing Translational Sciences (NCATS), 2008).
In all, about 270,000 compounds went through this assay and about 5,800 (2.1%) were called active. The shares of active, inactive and inconclusive entries below differ from those in the screen. The call rests on the fitted dose curve; in most records, active means well fitted inhibition curve with a large enough effect; inconclusive means small, poorly fitted or top-dose-only effect; inactive means flat fitted curve, though single readings scatter. A potency beside an inconclusive call is a rough fit, not a confirmed value.

Biological target: Microtubule-associated protein tau (Homo sapiens) (UniProt P10636)
Sequence of UniProt P10636 (P10636 whole entry, looked up): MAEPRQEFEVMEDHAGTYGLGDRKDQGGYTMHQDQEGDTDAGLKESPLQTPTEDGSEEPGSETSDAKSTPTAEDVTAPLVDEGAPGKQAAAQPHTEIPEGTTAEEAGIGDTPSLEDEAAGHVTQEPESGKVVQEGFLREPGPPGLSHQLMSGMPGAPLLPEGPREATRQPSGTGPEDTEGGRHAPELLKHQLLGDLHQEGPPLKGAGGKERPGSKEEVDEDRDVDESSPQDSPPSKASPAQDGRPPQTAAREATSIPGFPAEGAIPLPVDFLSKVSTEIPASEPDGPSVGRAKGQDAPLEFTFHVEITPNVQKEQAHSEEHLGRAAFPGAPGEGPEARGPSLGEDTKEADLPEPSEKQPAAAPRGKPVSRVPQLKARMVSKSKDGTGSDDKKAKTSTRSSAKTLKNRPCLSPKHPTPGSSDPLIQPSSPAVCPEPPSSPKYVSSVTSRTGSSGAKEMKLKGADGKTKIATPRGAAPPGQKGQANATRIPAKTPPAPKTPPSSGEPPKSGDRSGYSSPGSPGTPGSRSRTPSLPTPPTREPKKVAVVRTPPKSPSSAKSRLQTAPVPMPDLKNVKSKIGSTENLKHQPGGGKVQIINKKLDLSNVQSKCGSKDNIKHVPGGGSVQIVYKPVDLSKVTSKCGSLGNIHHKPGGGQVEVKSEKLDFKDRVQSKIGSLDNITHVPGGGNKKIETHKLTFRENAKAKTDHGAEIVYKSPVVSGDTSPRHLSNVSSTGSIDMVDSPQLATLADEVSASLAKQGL
Assay: qHTS for Inhibitors of Tau Fibril Formation, Thioflavin T Binding; further: nearly all actives have a fitted effect of over 55% in size
Conditions: recombinant tau K18 P301L (four-repeat tau fragment), heparin-induced fibrillization, ThT fluorescence; series mostly up to 57.4 µM; activity, negative = inhibition: at the top concentration
Outline: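 Heparin-induced (20 uM) aggregation of recombinant human K18 P301L tau, 15 uM unlabeled with 0.24 uM labeled, pH 7 acetate buffer, 6 hr at 37 C with compound. Fibrils quantified by 30 uM ThT fluorescence after 1 hr ambient incubation.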
On the % scale 0 is the no-effect control and ±100 the full control effect; potency means the concentration at half of the fitted maximal effect; tags describe the fitted curve by direction and shape.

SMILES | Potency | activity, negative = inhibition
C=CCn1c(SCC(=O)Nc2sc(C)c(C)c2C(=O)OCC)nnc1-c1sc(N)nc1C | inconclusive: 3.55 µM [inhibitor, single point] | 
O=C(Oc1ccc(-c2cnc3ccccc3n2)cc1)c1cc([N+](=O)[O-])ccc1Cl | inconclusive: 2.82 µM [inhibitor, full curve] | 
COc1ccccc1C1C(C#N)=C(N)Oc2cc(C)n(CCCn3ccnc3)c(=O)c21 (stereo not drawn) | inconclusive: 20 µM [inhibitor, partial curve] | 
CCCN1C(=O)/C(=C/c2ccco2)SC1=Nc1ccc(OC)cc1 | inconclusive: 22.4 µM [inhibitor, partial curve, poor fit] | 
COc1ccc(C(=O)NCCn2cc(SCC(=O)Nc3ccccc3)c3ccccc32)cc1OC | inconclusive: 17.8 µM [inhibitor, partial curve, poor fit] | 
COc1ccc(Nc2nc(N)c([N+](=O)[O-])c(NCc3ccccc3)n2)cc1 | inconclusive: 2.51 µM [inhibitor, full curve] | 
CC1(C)CC=C(O[Si](C)(c2ccccc2)c2ccccc2)CC1 |  | inactive: -3.27%
O=C(CCSc1ccc(Cl)cc1)N1CCN(c2ncccn2)CC1 | inconclusive: 2.24 µM [inhibitor, full curve] | 
Cc1cccc2nc(-c3cccc(NC(=O)c4ccc(Cl)cc4)c3)cn12 | inconclusive: 17.8 µM [inhibitor, partial curve] | 
COc1ccc(C2/C(=C(/O)c3ccccc3)C(=O)C(=O)N2CCO)cc1 (stereo not drawn) |  | inactive: -0.249%
Cc1cccc(NC(=O)C2C3C=CC(C4CC34)C2C(=O)O)c1 (stereo not drawn) |  | inactive: -12.8%
O=C(CN1CCOCC1)Nc1ccc(N2CCN(c3ccccc3)CC2)c(F)c1 | inconclusive: 15.8 µM [inhibitor, partial curve, poor fit] | 
COc1ccccc1NC(=O)c1oc2ccccc2c1NC(=O)c1c(F)cccc1F |  | inactive: 8.69%
Cn1cc(CCNC(=O)CC2C(=O)NCCN2Cc2cccc(Oc3ccccc3)c2)cn1 (stereo not drawn) |  | inactive: -16.4%
CCOC(=O)C1(C)C=C(Nc2ccc(OC)cc2)C(=O)N1c1ccccc1 (stereo not drawn) | inconclusive: 0.631 µM [inhibitor, full curve, poor fit] | 
N#CC1=C(N)N(c2ccccc2)C2=C(C(=O)CCC2)C1c1cccs1 (stereo not drawn) | inconclusive: 28.2 µM [inhibitor, single point] | 
CCOC(=O)N1CCC(NC(=O)c2ccc3c(c2)N(Cc2ccccc2)CCS3)CC1 | inconclusive: 39.8 µM [inhibitor, single point] | 
COc1ccc(-n2nnnc2SCC(=O)c2cccc(OC)c2)cc1 |  | inactive: -8.97%
